# In PubChem BioAssay (NCI):
#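 Method: 48-hour compound exposure of cells in 96-well plates, five concentrations, linear interpolation of endpoints. Here, GI50 denotes the concentration required for 50% inhibition of growth.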 Some entries of the source have several records that differ or are many. They are shown here; other results are not. An entry can have further records. For part of these data: A record mostly stands for its own series of concentrations, not given here; some values may only mark the edge of a range. For part of these data: The values listed for one entry repeat one measurement in other runs, samples, wells, individuals or studies. Records carry a tag for their origin. Letters count within one entry.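 TGI marks complete inhibition of growth.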
# Legend:
# Experiment in all cases: NCI tumour cell line growth inhibition, 48 h
# CCRF-CEM leukemia = test system: CCRF-CEM leukemia
# UACC-257 melanoma = test system: UACC-257 melanoma
# SF-295 CNS = test system: SF-295 CNS
# RXF 393 renal = test system: RXF 393 renal
# MALME-3M melanoma = test system: MALME-3M melanoma
# HOP-62 NSCLC = test system: HOP-62 NSCLC
# M14 melanoma = test system: M14 melanoma
# A549 NSCLC = test system: A549 NSCLC
# OVCAR-8 ovarian = test system: OVCAR-8 ovarian
# NCI-H23 lung = test system: NCI-H23 lung
# HL-60(TB) leukemia = test system: HL-60(TB) leukemia
# SNB-75 CNS = test system: SNB-75 CNS
# HOP-92 NSCLC = test system: HOP-92 NSCLC
# EKVX NSCLC = test system: EKVX NSCLC
# NCI-H226 lung = test system: NCI-H226 lung
# SR leukemia = test system: SR leukemia
# K-562 leukemia = test system: K-562 leukemia
# SK-MEL-2 melanoma = test system: SK-MEL-2 melanoma
# 786-0 renal = test system: 786-0 renal
# DMS 114 small cell lung = test system: DMS 114 small cell lung
# DLD-1 colon = test system: DLD-1 colon
# HCT-116 colon = test system: HCT-116 colon
# SNB-19 CNS = test system: SNB-19 CNS
# SN12C renal = test system: SN12C renal
# MOLT-4 leukemia = test system: MOLT-4 leukemia
# UACC-62 melanoma = test system: UACC-62 melanoma
# LOX IMVI melanoma = test system: LOX IMVI melanoma
# MDA-N = test system: MDA-N
# DMS 273 small cell lung = test system: DMS 273 small cell lung
# SF-539 CNS = test system: SF-539 CNS
# TK-10 renal = test system: TK-10 renal
# P388 leukemia = test system: P388 leukemia
# SW-620 colon = test system: SW-620 colon
# NCI-H460 lung = test system: NCI-H460 lung
# BT-549 breast = test system: BT-549 breast
# OVCAR-5 ovarian = test system: OVCAR-5 ovarian
# CAKI-1 renal = test system: CAKI-1 renal
# NCI/ADR-RES ovarian = test system: NCI/ADR-RES ovarian
# RPMI-8226 leukemia = test system: RPMI-8226 leukemia
# MDA-MB-435 = test system: MDA-MB-435
# DU-145 prostate = test system: DU-145 prostate
# SK-MEL-28 melanoma = test system: SK-MEL-28 melanoma
# HCC-2998 colon = test system: HCC-2998 colon
# U251 CNS = test system: U251 CNS
# COLO 205 colon = test system: COLO 205 colon
# ACHN renal = test system: ACHN renal
# PC-3 prostate = test system: PC-3 prostate
# HS 578T breast = test system: HS 578T breast
# MDA-MB-231 breast = test system: MDA-MB-231 breast
# MCF7 breast = test system: MCF7 breast
# HCT-15 colon = test system: HCT-15 colon
smiles,measurement,setting,value
O=c1ccn(C2OC(CO)C(O)C2F)c(=O)[nH]1 (configuration not stated),GI50,CCRF-CEM leukemia,"> 1 mM [sample A, 1 test] and 34.4 µM [sample B, mean of 2 tests]"
CC(=O)N[C@H]1C=C[C@@H]2/C=C(C)/C=C/[C@@H](C)[C@H]([C@H](C)[C@H](O)[C@@H](C)NC(C)=O)OC(=O)/C=C/C=C(C)\C=C\[C@]2(C)C1,GI50,UACC-257 melanoma,71.9 nM and 4.5 nM
same,TGI,SF-295 CNS,132 nM and 12 nM
same,TGI,RXF 393 renal,4.65 µM and 317 nM
same,GI50,MALME-3M melanoma,38.8 nM and 871 nM
same,GI50,HOP-62 NSCLC,103 nM and 9.75 nM
same,TGI,M14 melanoma,22.6 nM and 6.37 µM
same,GI50,A549 NSCLC,70.1 nM and 4.5 nM
same,GI50,OVCAR-8 ovarian,832 nM and 4.5 nM
same,GI50,NCI-H23 lung,1.27 µM and 35.2 nM
same,GI50,HL-60(TB) leukemia,18 nM and 992 nM
same,TGI,SNB-75 CNS,26.7 nM and 6.56 µM
same,TGI,HOP-92 NSCLC,176 nM and 11.4 nM
same,GI50,EKVX NSCLC,289 nM and 13.9 nM
COc1cc(C(=O)/C(C)=C/c2c[nH]c3ccccc23)cc(OC)c1OC,GI50,NCI-H226 lung,6.15 nM and 1.77 µM
CCN(CC)CC(O)CNc1ccc(NCC2CO2)c2c1C(=O)c1ccccc1C2=O (configuration not stated),TGI,SR leukemia,310 nM and 92.2 µM
same,GI50,CCRF-CEM leukemia,2.52 nM and 62 nM
same,TGI,CCRF-CEM leukemia,165 nM and > 100 µM
same,TGI,HL-60(TB) leukemia,33 nM and 1.25 µM
same,TGI,K-562 leukemia,174 nM and 11.5 µM
CCOC(=O)C(Cc1c[nH]c2ccc(N)cc12)(NC(C)=O)C(=O)OCC,GI50,M14 melanoma,52.2 µM and > 1 mM
CC(C)(C#N)c1cc(Cn2cncn2)cc(C(C)(C)C#N)c1,GI50,SK-MEL-2 melanoma,101 nM and 825 µM
Cc1c[nH]c2c(O)cc3c(c12)[C@H](CCl)CN3C(=O)c1cc2cc(NC(=O)Nc3ccc4[nH]c(C(=O)N5C[C@@H](CCl)c6c5cc(O)c5[nH]cc(C)c65)cc4c3)ccc2[nH]1,TGI,786-0 renal,16.8 nM and > 100 µM
same,TGI,DMS 114 small cell lung,2.1e-06 µg/mL and 0.0131 µg/mL
same,TGI,DLD-1 colon,5.4e-06 µg/mL and 8.88 µg/mL
same,TGI,HCT-116 colon,23.8 nM and 19.8 µM
same,TGI,SF-295 CNS,"45.1 nM, 1.41 nM, > 100 µM, 0.000888 µg/mL"
same,TGI,SNB-19 CNS,"43.8 nM, 464 nM, > 100 µM, 8.9e-07 µg/mL, 8.88 µg/mL"
same,TGI,SN12C renal,"128 nM, 29.6 µM, 8.9e-07 µg/mL, 0.000888 µg/mL"
same,TGI,SR leukemia,36.4 nM and 21.7 µM
same,TGI,MOLT-4 leukemia,"11.7 nM, 2.03 nM, 15 µM, 1.3e-06 µg/mL, 0.000903 µg/mL"
same,TGI,M14 melanoma,26.8 nM and > 100 µM
same,TGI,CCRF-CEM leukemia,"17.2 nM, 258 nM, > 100 µM, 1.3e-05 µg/mL, 0.0106 µg/mL"
same,TGI,UACC-62 melanoma,"30 nM, 33.3 µM, 8.9e-07 µg/mL, 0.00162 µg/mL"
same,TGI,LOX IMVI melanoma,18.3 nM and 77.6 µM
same,TGI,MDA-N,26.8 nM and > 100 µM
same,TGI,DMS 273 small cell lung,8.9e-07 µg/mL and 0.000888 µg/mL
same,TGI,SF-539 CNS,"49.6 nM, 8.86 µM, 8.9e-07 µg/mL, 0.00264 µg/mL"
same,GI50,TK-10 renal,1.44 nM and 40.8 µM
same,TGI,TK-10 renal,4.05 nM and > 100 µM
same,TGI,P388 leukemia,1.6e-06 µg/mL and 0.00126 µg/mL
same,TGI,SW-620 colon,4.54 nM and > 100 µM
same,TGI,NCI-H460 lung,35.5 nM and 28.1 µM
same,TGI,BT-549 breast,5.21 nM and > 100 µM
same,TGI,NCI-H23 lung,"29.6 nM, 41.6 µM, 0.00887 µg/mL, 0.00532 µg/mL"
same,TGI,OVCAR-5 ovarian,"49.5 nM, 584 nM, > 100 µM, 8.9e-07 µg/mL"
same,TGI,CAKI-1 renal,29.2 nM and > 100 µM
same,TGI,HL-60(TB) leukemia,"1.92 nM, 52.5 nM, 8.9e-07 µg/mL, 0.00108 µg/mL"
same,TGI,NCI/ADR-RES ovarian,"25.3 nM, > 100 µM, 0.00887 µg/mL, 0.23 µg/mL"
same,TGI,RPMI-8226 leukemia,"4.96 nM, > 100 µM, 8.4e-06 µg/mL, 0.0326 µg/mL"
same,TGI,MDA-MB-435,34.1 nM and > 100 µM
same,TGI,DU-145 prostate,"69.2 nM, 17.3 nM, > 100 µM"
same,TGI,K-562 leukemia,"1.23 µM, > 100 µM, 4.7e-06 µg/mL, 0.00869 µg/mL"
same,TGI,SK-MEL-28 melanoma,"33.1 nM, 35.6 µM, 8.9e-07 µg/mL, 0.00302 µg/mL"
same,TGI,HCC-2998 colon,"1.07 nM, 95.3 µM, 1.8e-06 µg/mL, 0.0145 µg/mL"
same,GI50,U251 CNS,0.191 nM and 410 nM
same,TGI,U251 CNS,23.2 nM and > 100 µM
same,TGI,COLO 205 colon,"35.8 nM, 21.5 nM, 28.1 µM"
same,TGI,SNB-75 CNS,"68.1 nM, 1.96 nM, 8.48 µM, 8.9e-07 µg/mL, 0.00888 µg/mL"
same,TGI,ACHN renal,57.3 nM and 17.1 µM
same,TGI,PC-3 prostate,5.8 nM and > 100 µM
same,TGI,HS 578T breast,"99.7 nM, 2.61 nM, > 100 µM"
CCN(CC)CCCC(C)Nc1c2ccc(Cl)cc2nc2ccc(OC)cc12 (configuration not stated),TGI,MDA-MB-231 breast,29.5 µM [sample A] and 2.79 µM [sample B]
COC(=O)CCc1cc(OC)c2c(c1)C(C(=O)OC)C(c1ccc(OC)c(OC)c1)O2 (configuration not stated),GI50,MCF7 breast,"> 100 µM [sample A, 1 test] and 8.9 µM [sample B, mean of 2 tests]"
same,GI50,HCT-116 colon,"> 100 µM [sample A, 1 test] and 7.27 µM [sample B, 1 test]"
same,GI50,NCI-H226 lung,"> 100 µM [sample A, 1 test] and 2.87 µM [sample B, 1 test]"
same,GI50,CCRF-CEM leukemia,"> 100 µM [sample A, 1 test] and 7.42 µM [sample B, mean of 2 tests]"
same,GI50,MDA-N,"> 100 µM [sample A, 1 test] and 3.01 µM [sample B, mean of 2 tests]"
same,GI50,HCT-15 colon,"> 100 µM [sample A, 1 test] and 5.34 µM [sample B, mean of 2 tests]"
same,GI50,MDA-MB-435,"> 100 µM [sample A, 1 test] and 2.3 µM [sample B, mean of 2 tests]"
same,TGI,MDA-MB-435,"> 100 µM [sample A, 1 test] and 8.9 µM [sample B, mean of 2 tests]"
same,GI50,K-562 leukemia,"> 100 µM [sample A, 1 test] and 3.54 µM [sample B, mean of 2 tests]"
